# According to PMC12040169 (PLOS Biology, 2025):
# The list shows a part of the results.
# System: T1, C. trachomatis L2/434/Bu expressing GFP (CTL2-GFP)
# T1 construct: L2/434/Bu GFP intracellular growth in HeLa cells
# Parameters: species or system HeLa; C. trachomatis total inclusion area by high-content imaging, normalised to DMSO
# Conditions: total inclusion area; 28.5 h, 10 µM; inhibitor
# Summary of the method: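 High-content imaging followed the bulk GFP/resorufin measurement: fixed, Hoechst-stained cells were scored for GFP inclusions and host nuclei per well. Total inclusion area and count served as growth proxies, nuclei number as the viability proxy. MIC calculation matched the bulk assay.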
row,Structure (SMILES),% of control remaining
1,CCNC(=O)N1CC2(CCN(CCS(=O)(=O)c3ccccc3)CC2)c2ccccc21 [CBK126698],92.0846
2,COc1ccc(Cn2ncnc2CC2CCNCC2)cc1 [CBK307071],69.2549
3,CC(=O)Nc1cccc(-c2cncc(N[C@H](CO)C(C)C)n2)c1 [CBK065475],113.634
4,O=C(c1ccc2ccccc2n1)N1CCC(Cc2ccccc2)CC1 [CBK200184],91.3673
5,c1ccc(-c2noc(CN3CCN(C(c4ccccc4)c4ccccc4)CC3)n2)cc1 [CBK265844],129.596
6,O=C(Cc1ccccc1Cl)NCc1nnc(-c2cccs2)o1 [CBK284643],81.9074
7,Cc1nn(S(=O)(=O)c2cccc3nsnc23)c(C)c1Cl [CBK270323],98.5421
8,CCN(CCO)c1ccc(Nc2cc(-c3cc4ccccc4o3)ncn2)cc1 [CBK090999],115.475
9,Cc1ccsc1CN(C)C(=O)NC1CCCc2c1cnn2CCO (centres unmarked) [CBK306349],56.3033
10,O=C(CC1CCCC1)NCCn1nc(-c2cccs2)oc1=O [CBK282386],93.3274
11,O=[N+]([O-])c1cc(F)ccc1Oc1cccc(Cl)c1Cl [CBK002604],124.055
12,CN1CCCN(c2cncc(-c3cccnc3)n2)CC1 [CBK037215],86.7558
13,CN(CC(=O)NNC(=O)c1cccs1)S(=O)(=O)c1ccc2ccccc2c1 [CBK267409],95.2887
14,O=S(=O)(Nc1nc(CCNCCO)cs1)c1ccc(Oc2ccccc2)cc1 [CBK034632],102.369
15,c1coc(-c2cc(Nc3ccc4[nH]ccc4c3)ncn2)c1 [CBK090862],85.2549
16,O=S(=O)(Nc1nccnc1N1CCN(c2ccccc2)CC1)c1ccc(F)cc1 [CBK048706],94.9471
17,CCOC(=O)c1cccnc1-c1cccc(C(N)=O)c1 [CBK149239],100.962
18,COC(=O)CC1(C)C(=O)CCC2(C)C1=CCc1ccccc12 (centres unmarked) [CBK006547],105.182
19,COc1cc(CNC2CCCc3c2cnn3C)cc(OC)c1 (centres unmarked) [CBK304306C],94.7018
20,Cc1ccncc1C(=O)NCc1ccccc1 [CBK200193],75.4768
21,CC(C)Nc1nc2ccccc2nc1OCCC#N [CBK115735],97.6338
22,COc1cccc(NC(=O)CC(CN2CCN(Cc3ccccn3)CC2)C(=O)O)c1 (centres unmarked) [CBK286735],106.848
23,Nc1ncc(-c2ccc(C(=O)N3CCOCC3)cc2)nc1-c1cccnc1 [CBK126356],105.328
